Here are results for 12 compounds from patent US9439918B2 (priority 2008, dated 2016).

Molecules are shown by their SMILES. In brackets after ≈: the same amount, converted by molar mass.

Holding throughout (assay type): cell-based
Common to all, as to details: broth microdilution
In general terms: Broth dilution looks for growth in wells or tubes with falling amounts of substance.

One assay concerns S. aureus 29213 Ery-S.
The subject of assay [1] is H. influenzae 49247 Ery-S.
For assay [2], the system named is S. pneumoniae 303 Ery-R (ermB).
Assay [3] deals with S. pneumoniae 163 Ery-R (MefA).
Assay [4] has as its system S. aureus 96:11480 Ery-R (MLSb).

Regarding `CCC1OC(=O)C(C)C(=O)C(C)C(OC2OC(C)CC(N(C)C)C2O)C(C)(OC)CC(C)C(=O)C(C)C2N(CCCn3cc(-c4cccc(N)c4)nn3)C(=O)OC12C` (stereo not shown) [Entry 16a], the “Minimum inhibitory concentration, S. aureus 29213 Ery-S” value in the assay with S. aureus 29213 Ery-S was 0.5 µg/mL (≈ 0.615 µM). For the same compound, the “Minimum inhibitory concentration, H. influenzae 49247 Ery-S” value in assay [1] was determined as 16 µg/mL (≈ 19.7 µM). The “Minimum inhibitory concentration, S. pneumoniae 303 Ery-R (ermB)” value (from here on “Minimum inhibitory concentration … (ermB)”) in assay [2] is above 64 µg/mL.

Consider `CCC1OC(=O)C(C)C(=O)C(C)C(OC2OC(C)CC(N(C)C)C2O)C(C)(OC)CC(C)C(=O)C(C)C2N(CCCCCn3cc(-c4ccccc4)nn3)C(=O)OC12C` (stereo not shown) [Entry 11c], for which the “Minimum inhibitory concentration, H. influenzae 49247 Ery-S” value in assay [1] stood at 16 µg/mL (≈ 19.4 µM). The “Minimum inhibitory concentration … (ermB)” value in assay [2] was 0.25 µg/mL (≈ 0.303 µM).

As for `CCC1OC(=O)C(C)C(=O)C(C)C(OC2OC(C)CC(N(C)C)C2O)C(C)(OC)CC(C)C(=O)C(C)C2N(CCCn3cc(-c4ccccn4)nn3)C(=O)OC12C` (stereo not shown) [Entry 14a], the “Minimum inhibitory concentration, S. pneumoniae 163 Ery-R (MefA)” value (“Minimum inhibitory concentration … (MefA)” below) in assay [3] was 0.5 µg/mL (≈ 0.626 µM). Further, the “Minimum inhibitory concentration, S. aureus 29213 Ery-S” value in the assay with S. aureus 29213 Ery-S was found to be 2 µg/mL (≈ 2.5 µM). Further, the “Minimum inhibitory concentration, H. influenzae 49247 Ery-S” value in assay [1] is above 64 µg/mL. The “Minimum inhibitory concentration, S. aureus 96:11480 Ery-R (MLSb)” value (shortened to “Minimum inhibitory concentration … (MLSb)”) in assay [4] was determined as 2 µg/mL (≈ 2.5 µM). The “Minimum inhibitory concentration … (ermB)” value in assay [2] was above 64 µg/mL.

In the case of `CCC1OC(=O)C(C)C(=O)C(C)C(OC2OC(C)CC(N(C)C)C2O)C(C)(OC)CC(C)C(=O)C(C)C2N(CCCCn3cc(COc4c(Cl)cccc4Cl)nn3)C(=O)OC12C` (stereo not shown) [Entry 17b], in the assay on S. aureus 29213 Ery-S, the “Minimum inhibitory concentration, S. aureus 29213 Ery-S” value was at most 0.125 µg/mL. Also, the “Minimum inhibitory concentration, H. influenzae 49247 Ery-S” value in assay [1] was found to be 16 µg/mL (≈ 17.6 µM). For the same compound, the “Minimum inhibitory concentration … (ermB)” value in assay [2] stood at 1 µg/mL (≈ 1.1 µM).

For `CCC1OC(=O)C(C)C(=O)C(C)C(OC2OC(C)CC(N(C)C)C2O)C(C)(OC)CC(C)C(=O)C(C)C2N(CCCCn3cc(-c4ccccc4)nn3)C(=O)OC12C` (stereo not shown) [Entry 11b], the “Minimum inhibitory concentration, H. influenzae 49247 Ery-S” value in assay [1] turned out to be 8 µg/mL (≈ 9.85 µM). The “Minimum inhibitory concentration … (MLSb)” value in assay [4] was found to be 0.25 µg/mL (≈ 0.308 µM). In assay [2], the “Minimum inhibitory concentration … (ermB)” value came out at 2 µg/mL (≈ 2.46 µM).

Consider `CCC1OC(=O)C(C)C(=O)C(C)C(OC2OC(C)CC(N(C)C)C2O)C(C)(OC)CC(C)C(=O)C(C)C2N(CCCCCn3cc(-c4cccnc4)nn3)C(=O)OC12C` (stereo not shown) [Entry 15c], for which, in assay [3], the “Minimum inhibitory concentration … (MefA)” value is 0.25 µg/mL (≈ 0.302 µM). Moreover, the “Minimum inhibitory concentration, H. influenzae 49247 Ery-S” value in assay [1] turned out to be 16 µg/mL (≈ 19.3 µM). The “Minimum inhibitory concentration … (MLSb)” value in assay [4] stood at 0.25 µg/mL (≈ 0.302 µM). The “Minimum inhibitory concentration … (ermB)” value in assay [2] was 4 µg/mL (≈ 4.84 µM).

Regarding `CCC1OC(=O)C(C)C(=O)C(C)C(OC2OC(C)CC(N(C)C)C2O)C(C)(OC)CC(C)C(=O)C(C)C2N(CCCCCn3cc(COc4c(Cl)cccc4Cl)nn3)C(=O)OC12C` (stereo not shown) [Entry 17c], the “Minimum inhibitory concentration, S. aureus 29213 Ery-S” value in the assay on S. aureus 29213 Ery-S amounted to 0.25 µg/mL (≈ 0.27 µM). Further, the “Minimum inhibitory concentration, H. influenzae 49247 Ery-S” value in assay [1] stood at 32 µg/mL (≈ 34.6 µM). Also, the “Minimum inhibitory concentration … (MLSb)” value in assay [4] is 0.5 µg/mL (≈ 0.541 µM). Also, in assay [2], the “Minimum inhibitory concentration … (ermB)” value was determined as 2 µg/mL (≈ 2.16 µM).

Regarding `CCC1OC(=O)C(C)C(=O)C(C)C(OC2OC(C)CC(N(C)C)C2O)C(C)(OC)CC(C)C(=O)C(C)C2N(CCCCn3cc(-c4ccccn4)nn3)C(=O)OC12C` (stereo not shown) [Entry 14b], the “Minimum inhibitory concentration, H. influenzae 49247 Ery-S” value in assay [1] was 4 µg/mL (≈ 4.92 µM).

With `CCC1OC(=O)C(C)C(=O)C(C)C(OC2OC(C)CC(N(C)C)C2O)C(C)(OC)CC(C)C(=O)C(C)C2N(CCCCn3cc(-c4ccc(C(F)(F)F)cc4)nn3)C(=O)OC12C` (stereo not shown) [Entry 13b], the “Minimum inhibitory concentration, S. aureus 29213 Ery-S” value in the assay on S. aureus 29213 Ery-S is 0.25 µg/mL (≈ 0.284 µM). Moreover, the “Minimum inhibitory concentration, H. influenzae 49247 Ery-S” value in assay [1] was 8 µg/mL (≈ 9.09 µM). Further, the “Minimum inhibitory concentration … (MLSb)” value in assay [4] is 0.25 µg/mL (≈ 0.284 µM). Moreover, the “Minimum inhibitory concentration … (ermB)” value in assay [2] was found to be 8 µg/mL (≈ 9.09 µM).

Take `CCC1OC(=O)C(C)C(=O)C(C)C(OC2OC(C)CC(N(C)C)C2O)C(C)(OC)CC(C)C(=O)C(C)C2N(CCCCn3cc(-c4cccc(N)c4)nn3)C(=O)OC12C` (stereo not shown) [Entry 16b]: in the assay on S. aureus 29213 Ery-S, the “Minimum inhibitory concentration, S. aureus 29213 Ery-S” value worked out at 0.125 µg/mL (≈ 0.151 µM). The “Minimum inhibitory concentration, H. influenzae 49247 Ery-S” value in assay [1] was determined as 2 µg/mL (≈ 2.42 µM).

Regarding `CCC1OC(=O)C(C)C(=O)C(C)C(OC2OC(C)CC(N(C)C)C2O)C(C)(OC)CC(C)C(=O)C(C)C2N(CCCCn3cc(-c4cccnc4)nn3)C(=O)OC12C` (stereo not shown) [Entry 15b], the “Minimum inhibitory concentration … (MefA)” value in assay [3] came to 2 µg/mL (≈ 2.46 µM). Further, the “Minimum inhibitory concentration, H. influenzae 49247 Ery-S” value in assay [1] amounted to 64 µg/mL (≈ 78.7 µM). Also, the “Minimum inhibitory concentration … (MLSb)” value in assay [4] was 4 µg/mL (≈ 4.92 µM). Also, the “Minimum inhibitory concentration … (ermB)” value in assay [2] came out at 64 µg/mL (≈ 78.7 µM).

On to `CCC1OC(=O)C(C)C(=O)C(C)C(OC2OC(C)CC(N(C)C)C2O)C(C)(OC)CC(C)C(=O)C(C)C2N(CCCCCn3cc(-c4ccc(Br)cc4)nn3)C(=O)OC12C` (stereo not shown) [Entry 12c], for which the “Minimum inhibitory concentration, H. influenzae 49247 Ery-S” value in assay [1] was determined as 16 µg/mL (≈ 17.7 µM). In addition, in assay [2], the “Minimum inhibitory concentration … (ermB)” value turned out to be 1 µg/mL (≈ 1.11 µM).
